Reference: PubChem BioAssay AID2060513 (Molecular Pharmacology Branch, DTP, NCI, 2025)
Certain results were filed several times, with different values. Only these are listed. An entry can have further records. Results that share an entry are repeated measurements (runs, samples, wells, individuals or studies). Brackets with × stand for listed records that agree.

Tested on: 299254-011-R-J1-PDC complex spheroids viability
Test: Anticancer human tumor 299254-011-R-J1-PDC patient-derived melanoma cell line growth inhibition [GQUAD]
Conditions: for viability, T/C: stronger effect = lower value
Source text: DNA G-quadruplex Stabilizer Agents in Combinations in Complex Spheroids
A high-throughput screen of multi-cell type tumor spheroids was designed to identify active combinations of DNA G-quadruplex stabilizer agents and targeted small molecules. Complex spheroids include a stromal component modeled by human endothelial cells (HUVEC) and fibroblasts modeled by human mesenchymal stem cells (MSCs). The concentration ranges selected for each drug and investigational agent were based upon clinically achievable concentrations if the clinical Cmax of the agent was known.
Compounds. The drugs and investigational agents: pidnarulex (CX-5461; NSC782164), APTO-253 (NSC789042), BRACO-19 (NSC847499), peposertib (NSC802822), ceralasertib (NSC780249), elimusertib (NSC800525), camonsertib (NSC841442), AZD-1390 (NSC803789), olaparib (NSC753686), talazoparib (NSC767125), ART-558 (NSC835418), sotorasib (NSC818433), MRTX-1133 (NSC836407), SN-38 (NSC673596), topotecan (NSC609699), etoposide (NSC141540), doxorubicin (NSC123127), gemcitabine (NSC613327), 5-fluorouracil (NSC19893), paclitaxel (NSC125973), vemurafenib (NSC761431), panobinostat (NSC761190), R-306465 (JNJ-16241199; NSC773264), adavosertib (NSC754352), TP-3654 (NSC805149), carboplatin (NSC241240), KSQ-4279 (NSC840948), and staurosporine (NSC755774) were obtained from the National Cancer Institute (NCI) Developmental Therapeutics Program Chemical Repository (34). The FDA-approved anticancer drug set is available from the NCI Developmental Therapeutics Program. […] The stock solutions were prepared in dimethyl sulfoxide (DMSO, Sigma-Aldrich, St. Louis, MO, cat. D2650) at 800-fold the tested concentration and stored at -70 degrees C prior to their use. All drugs and investigational agents were tested over a range starting from a high concentration at or near the clinical Cmax and decreasing in half-log increments. If the clinical Cmax for an agent had not been determined, the highest concentration tested was 10 microM.
2.3 Cell Culture. All cells were maintained in an incubator at 37 degrees C and 5% CO2 with 95% humidity. The PDC lines were cultured according to standard operating procedures established by the NCI PDMR. All PDCs were thawed and cultured in Matrigel-coated flasks prepared with a working solution of 1X Ham's F-12 nutrient mix, without supplementation (Invitrogen, cat. 11765054), 100 U/mL penicillin-streptomycin (Invitrogen, cat. 15140122), and 2.5% Matrigel (Corning Inc., cat. 354248) for the first three passages. The 857933-349-R-J2-PDC line was cultured in 6C/Colon 1B media, which includes advanced DMEM/F-12 (Thermo Fisher Scientific, cat. 12634028), 10 mM HEPES (Thermo Fisher Scientific, cat. 15630080), 1X GlutaMAX supplement (Thermo Fisher Scientific, cat. 35050061), 0.1 mg/mL primocin (InvivoGen, cat. ant-pm-2), 10% defined fetal bovine serum, heat inactivated (HyClone Laboratories Inc., cat. SH30070.03HI), 50% L-WRN conditioned media (ATCC, cat. CRL-3276), 1.25 mM N-Acetyl-L-cysteine (Sigma-Aldrich, cat. A9165), 10 mM nicotinamide (Sigma-Aldrich, cat. N0636), 1X B-27 supplement (Thermo Fisher Scientific, cat. 17504044), 1X N-2 supplement (Thermo Fisher Scientific, cat. 17502048), 10 microM Y-27632 dihydrochloride (Tocris Bioscience, cat. 1254), and 50 ng/mL human EGF recombinant protein (Thermo Fisher Scientific, cat. PHG0311). The 485176-168-R4-J1-PDC line was cultured in Panc media, which includes all 6C/Colon 1B media components plus 100 ng/mL human FGF-10 (Thermo Fisher Scientific, cat. 100-26), 500 nM SB-431542 (Selleckchem, cat. S1067), and gastrin (Tocris, cat. 3006).
[…]
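Note: spheroids exposed to the agents for seven days before readout.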
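Throughout, for viability, T/C: percent viability relative to DMSO vehicle control wells = 100%.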

Compound	viability, T/C (compound alone 0.1 µM)	viability, T/C (compound alone 1 µM)	viability, T/C (compound alone 0.0316 µM)	viability, T/C (compound alone 3.16 µM)	viability, T/C (compound alone 10 µM)	IC50 (compound alone, run of 02/20/2024)
CN(C)c1ccc(Nc2c3ccc(NC(=O)CCN4CCCC4)cc3nc3cc(NC(=O)CCN4CCCC4)ccc23)cc1	98.9, 91.1, 86.1, 104 (2×), 102, 78.3, 99.9, 109, 91.9, 101, 98.6%	99.6, 79, 94.4, 100, 114, 88.1, 91.5, 103 (2×), 92.4, 86.6, 92.6%				
Cc1cnc(CNC(=O)c2c(=O)c3ccc(N4CCCN(C)CC4)nc3n3c2sc2ccccc23)cn1	105, 99.7, 83.8, 91.7, 90.5, 89.4, 102, 101, 109, 115, 80.3, 120%	93.7, 89.1, 79.2, 97.5, 93.5, 82.6, 97, 75.9, 101, 98.2, 104, 99.7%	96, 104 (2×), 121, 92, 88.2, 118, 102, 88.4, 109, 99.1, 98.4%	75.5, 80, 67.9, 68.7, 71, 68.3, 88.4, 58.2, 73, 86.7, 79, 69.4%	32.1, 64.9, 0.34, 0.39, 0.41, 13.5, 51.6, 16.2, 68.9, 15.2, 60.8, 27.5%	6.22 µM, 3.92 µM, 4.33 µM, 4.46 µM, 4.61 µM, 3.84 µM, > 10 µM, 5.64 µM, 5.38 µM
Cc1[nH]c2ccc(F)cc2c1-c1nc2c3cccnc3c3ncccc3c2[nH]1	101 (2×), 117, 83.5, 87, 103, 99, 104, 95, 87.9, 87.5, 93.8%	83.7, 90.3, 89, 90.5, 103 (2×), 87.2, 81.2, 88, 104, 114, 119%		73.7, 88.5, 88.3, 92.4, 78.1, 83.7, 86.2, 84.1, 106, 112, 87.3, 98.2%	65.8, 75, 73.6, 96.5, 95.6, 97.6, 99.2, 74.6, 89.5, 95.5, 76.5, 106%	
